Results reported in the supplement of paper PMC7335073.
In all, about 4,100 sequences were measured (“relative CpG methylation activity (normalised to average over all NNNCGNNN flanks)”: median about 0.94, highest 2% from about 1.9 on). The list shows a part of the results.

Biological target: DNMT3B catalytic domain (mouse) (UniProt O88509)
Assay: relative CpG methylation activity (normalised to average over all NNNCGNNN flanks) (relative (1 = mean)); higher = more methylation of the central CpG
Settings: system: in vitro, murine catalytic domain; CpG state: hemimethylated substrate pool; residues: 558-859
Outline: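 Murine DNMT3A or DNMT3B catalytic domain methylated pooled dsDNA substrates, each carrying a central CpG within 10 random flanking nucleotides, with 0.8 mM S-adenosyl-L-methionine in HEPES pH 7.5 buffer at 37 °C for 60 min. Proteinase K treatment, BsaI-HFv2 digestion, hairpin ligation, bisulfite conversion and two-step PCR preceded Illumina sequencing. Relative methylation activity is the average methylation of a flanking context divided by the mean across all contexts, where a context spans three bases on each side, and every experiment was repeated twice independently.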

Chain of UniProt O88509 (O88509 558-859): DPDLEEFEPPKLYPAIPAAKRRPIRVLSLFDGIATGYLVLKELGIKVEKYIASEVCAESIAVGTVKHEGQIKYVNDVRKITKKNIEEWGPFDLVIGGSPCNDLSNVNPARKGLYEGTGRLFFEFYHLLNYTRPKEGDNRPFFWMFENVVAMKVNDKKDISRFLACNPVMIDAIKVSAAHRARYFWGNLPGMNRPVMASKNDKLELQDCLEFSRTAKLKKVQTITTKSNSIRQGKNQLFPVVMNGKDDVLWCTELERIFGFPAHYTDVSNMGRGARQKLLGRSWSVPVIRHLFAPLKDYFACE

Sequence | relative CpG methylation activity
GTACGAAT | 1.48
TGTCGGGT | 1.02
ATCCGGAC | 1.12
GATCGAAA | 1.32
TTCCGCAC | 1.24
GAGCGATG | 0.633
AAGCGATA | 1.12
GCACGTGG | 0.497
CTGCGCCC | 1.24
CCACGAAA | 1.39
ACGCGTTC | 0.658
ATTCGTTT | 0.469
ACTCGGCC | 1.62
TGGCGAAT | 0.687
AAGCGCCA | 0.765
TTACGTGG | 1.01
CTTCGATT | 1.71
ACGCGCGT | 0.522
TAGCGCCT | 0.72
ATACGCAC | 1.36
CCACGACC | 1.35
GTGCGAGT | 1.29
CGACGTAC | 0.815
GGTCGAGC | 1.36
GAACGTGC | 1.03

Sequence | relative CpG methylation activity
AACCGGTA | 0.82
CAGCGTCT | 0.578
CCCCGATT | 1.69
TTGCGGAC | 1.19
GCTCGTTC | 0.626
AACCGACT | 0.962
CGCCGCGA | 0.141
GCTCGCTC | 0.825
GGGCGGAA | 0.326
CATCGGCC | 1.86
TCTCGGAG | 0.601
ACGCGTCG | 0.617
TCTCGAGG | 1.49
TATCGATC | 1.78
AAACGACA | 1.45
GGGCGTGC | 0.439
CGACGCGC | 0.833
TGACGTGA | 0.339
AACCGGGG | 0.797
TGACGGAC | 0.994
TGTCGGTA | 1.16
GGCCGTCG | 0.284
CCTCGATA | 1.61
CTTCGAAT | 1.49
AACCGTTT | 0.234

Sequence | relative CpG methylation activity
GCTCGGTA | 1.08
TACCGCTT | 0.676
GGCCGACG | 0.769
AAGCGCGT | 0.426
AATCGGTT | 1.25
TAGCGACC | 0.779
ATTCGGAT | 0.679
CATCGTGA | 0.436
CGGCGACC | 0.673
TCACGACC | 1.17
GGCCGCGT | 0.0969
TGGCGCAT | 0.311
CGACGGGT | 1.28
ACGCGCTC | 0.863
AATCGCCC | 0.893
ATGCGGCG | 1.34
CCCCGATG | 1.35
GCACGGCT | 1.52
CCGCGACA | 0.815
AGACGCTA | 0.784
ACCCGCTC | 0.838
CACCGCTG | 0.459
TGGCGGTT | 0.685
CCGCGGTT | 0.773
ACACGTTC | 1.13

Sequence | relative CpG methylation activity
TCACGGCC | 1.74
ACTCGCCC | 0.893
CGTCGCCA | 0.723
GTGCGCGT | 0.649
GGCCGGAC | 0.442
GGCCGGGG | 0.595
GGTCGGCG | 1.72
CCTCGGAT | 0.856
CATCGGTG | 1.16
GGTCGTAA | 0.259
CGTCGACT | 1.31
ATCCGATA | 1.59
TAACGGCC | 1.71
ATGCGCGA | 0.692
GTCCGAGA | 1.59
CTGCGTGT | 0.723
ACGCGCAG | 0.356
GTACGTGT | 0.932
AAGCGGTG | 0.509
GTGCGGGA | 1.15
ACGCGCCT | 1.13
TATCGTGG | 0.171
GCCCGTGA | 0.56
GCCCGTGT | 0.369
TAACGCCT | 1.35

Sequence | relative CpG methylation activity
ATTCGCAG | 0.453
AGCCGGCA | 0.995
ACGCGTGC | 0.401
GCACGTCA | 0.98
GAACGTGT | 0.529
AACCGCGG | 0.183
AAGCGCCT | 0.713
TTACGTTG | 1.29
TTACGAAC | 1.96
CATCGCGC | 0.853
TGGCGTAG | 0.307
CTGCGTCT | 1.11
ATTCGCAC | 0.727
GAACGGAA | 1.13
CTACGGGA | 1.91
AGTCGAAG | 1
GGTCGTAT | 0.496
GTTCGAAC | 1.73
TTCCGTGA | 0.444
ATACGACG | 1.61
CAACGTAG | 0.841
GTCCGAAA | 1.26
CGTCGACG | 0.922
TATCGCTT | 0.715
TACCGCGA | 0.342

Sequence | relative CpG methylation activity
TTACGCTT | 1.88
GTACGAGC | 1.83
AGGCGTTG | 0.0369
CCTCGGCC | 1.66
GACCGGCG | 1.53
TACCGCTA | 0.483
ATGCGGAT | 0.873
TTGCGAGA | 1.44
TTCCGACC | 1.75
TTGCGGAG | 0.803
GAGCGCTG | 0.635
TTGCGCCT | 1.12
TTTCGCCG | 1.43
GCCCGATA | 1.41
AGACGTTA | 0.669
CGACGTGG | 0.431
CGCCGCTC | 0.554
ACCCGCAC | 0.757
TACCGACA | 1.2
GGACGCCC | 0.916
CGCCGCCC | 0.44
TCGCGGGT | 0.741
ACGCGCTA | 0.545
GCTCGTTT | 0.503
CCACGGCG | 1.86

Sequence | relative CpG methylation activity
TGACGGAG | 0.84
TTACGAGC | 2.09
GCCCGCGG | 0.453
CGGCGGAT | 0.283
AGGCGTGT | 0.104
ACTCGTCT | 0.63
TACCGCCC | 0.778
TGACGATC | 1.42
TACCGGTC | 1.22
GTTCGGAC | 1.37
TACCGTAT | 0.29
GACCGCTC | 0.572
GCGCGATA | 1.14
TTCCGTAA | 0.531
AACCGCTG | 0.32
CTACGAAT | 1.56
CCGCGCGT | 0.602
CGTCGCCG | 0.81
TGCCGGAT | 0.435
ACGCGAGT | 1.05
GTACGCTG | 1.17
CCACGCTT | 1.13
